According to the RNAGym collection of RNA variant scans (doi:10.1093/nar/gkz1192):
The source gives no read counts; variants with many changes may rest on few reads.

B1: CPEB3 Ribozyme (parent)
chain: UAACAGGGGGCCACAGCAGAAGCGUUCACGUCGCAGCCCCUGUCAGAUUCUGGUGAAUCUGCGAAUUCUGCUGUAUAUCUC

Variants of: B1
Assay: self-cleavage, relative activity (ratio to wild type); higher = more cleavage; in vitro, sequencing
In short: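 Relative activity compares each variant's cleaved/total read fraction with that of the unmutated ribozyme. To get these fractions, barcoded CPEB3 ribozyme libraries from rounds of error-prone PCR were transcribed with T7 RNA polymerase for 5 hours at 37°C and then given 15 min of DNase I treatment before EDTA was added. The RNAs were reverse transcribed with template switching and sequenced on Illumina, and DNA sequencing linked barcodes to variants. A minimum of 5 reads applied, and three batches were averaged.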

For A3G A35U A57G U66A, which self-cleavage is on record?
The self-cleavage was 0.1.

Which self-cleavage does the source give for A3G C11G A15U A18U C40A A64G U72C here?
Its self-cleavage is 0.07.

Which self-cleavage does the source give for A3G A56U U69A here?
The self-cleavage was 0.55.

Which self-cleavage does the source give for A3G A18U A21G U25C C32A A45G here?
The self-cleavage was 0.08.

Which self-cleavage does the source give for A3G C23G C34U U66C U69G here?
The self-cleavage was 0.08.

Which self-cleavage does the source give for A3G A47G U49C U67A here?
The self-cleavage was 0.09.

With A3G C11A A45U U49C A57G U80C as the variant, how does the self-cleavage read?
The self-cleavage was 0.51.

For A3G A21G U49C U54C, which self-cleavage is on record?
Its self-cleavage is 0.31.

For A3G A28U U48C U58A U72A, which self-cleavage is on record?
Its self-cleavage is 0.12.

Which self-cleavage does the source give for A3G C32G A64U here?
Its self-cleavage is 0.23.

For A3G C14U G63A, which self-cleavage is on record?
The self-cleavage was 0.55.

Which self-cleavage does the source give for A3G A18G U74C here?
Its self-cleavage is 0.86.

For A3G A18U U31A C68U U80C, which self-cleavage is on record?
The self-cleavage was 0.43.

With A3G A18G U72G as the variant, how does the self-cleavage read?
Its self-cleavage is 0.49.

Which self-cleavage does the source give for A3G A18G U72C here?
Its self-cleavage is 0.7.

For A3G A18G U25C U31C G33A U48C, which self-cleavage is on record?
The self-cleavage was 0.09.

With A3G A15U U31C as the variant, how does the self-cleavage read?
Its self-cleavage is 0.67.

With A3G C17U C23U U26C A28G A64U as the variant, how does the self-cleavage read?
Its self-cleavage is 0.04.

For A3G A47G U80C, which self-cleavage is on record?
The self-cleavage was 1.05.

With A3G A45G U48C as the variant, how does the self-cleavage read?
Its self-cleavage is 0.19.

With A3G A65G U72C as the variant, how does the self-cleavage read?
Its self-cleavage is 0.62.

For A3G A21C U48C, which self-cleavage is on record?
Its self-cleavage is 0.6.

Which self-cleavage does the source give for A3G A28U A35G U58A C68A here?
Its self-cleavage is 0.47.

Which self-cleavage does the source give for A3G C32U U76A here?
Its self-cleavage is 0.46.

With A3G A20G U26C G53A U74C as the variant, how does the self-cleavage read?
Its self-cleavage is 0.46.

With A3G A28G A35U U41A A75U as the variant, how does the self-cleavage read?
Its self-cleavage is 0.63.

With A3G A35G G46U as the variant, how does the self-cleavage read?
The self-cleavage was 0.88.

For A3G A56G U72A, which self-cleavage is on record?
The self-cleavage was 0.8.

For A3G A18C G30A U60A U67C U72G, which self-cleavage is on record?
The self-cleavage was 0.04.

For A3G A35U C38U A77G, which self-cleavage is on record?
Its self-cleavage is 0.23.

Which self-cleavage does the source give for A3G A15G U25C A28G U49A U60C U72A here?
Its self-cleavage is 0.27.

For A3G C23G U48A, which self-cleavage is on record?
Its self-cleavage is 0.44.

For A3G A35U G52C, which self-cleavage is on record?
The self-cleavage was 0.68.

With A3G A35U G53U A56G A65G as the variant, how does the self-cleavage read?
The self-cleavage was 0.1.

For A3G A18G A35G U49C A56U A64U, which self-cleavage is on record?
The self-cleavage was 0.28.

With A3G A21G U41C U60G A64U as the variant, how does the self-cleavage read?
The self-cleavage was 0.11.

Which self-cleavage does the source give for A3G A47U A57G U72A here?
The self-cleavage was 0.16.

For A3G A18U U43C U76C, which self-cleavage is on record?
The self-cleavage was 0.61.

With A3G A28G G55C U69C as the variant, how does the self-cleavage read?
The self-cleavage was 0.13.

For A3G A56G A64C, which self-cleavage is on record?
Its self-cleavage is 0.32.

For A3G A18U A35U U41A A75G, which self-cleavage is on record?
Its self-cleavage is 0.32.

With A3G C14U A35G as the variant, how does the self-cleavage read?
Its self-cleavage is 1.28.

With A3G A21G A65U U67C as the variant, how does the self-cleavage read?
The self-cleavage was 0.26.

For A3G A18U U26A A35G U69A A77G, which self-cleavage is on record?
The self-cleavage was 1.29.

With A3G C29U A45G U51C as the variant, how does the self-cleavage read?
The self-cleavage was 0.2.

Which self-cleavage does the source give for A3G A15G U51C G52C A56G here?
Its self-cleavage is 0.61.

For A3G A20G A64G A65G, which self-cleavage is on record?
Its self-cleavage is 0.1.

For A3G A20G U25C, which self-cleavage is on record?
Its self-cleavage is 0.46.

With A3G C27G G55U A65G U67A as the variant, how does the self-cleavage read?
Its self-cleavage is 0.29.

For A3G A35U A56U U76A U78C, which self-cleavage is on record?
Its self-cleavage is 0.77.

For A3G A45G A56U A57G U67C, which self-cleavage is on record?
The self-cleavage was 0.23.

With A3G A18G A28U A35G as the variant, how does the self-cleavage read?
Its self-cleavage is 0.66.

For A3G A20U A28G U48A U72C, which self-cleavage is on record?
The self-cleavage was 0.06.

With A3G A21G U43C G53A U54C U58C as the variant, how does the self-cleavage read?
The self-cleavage was 0.1.

With A3G A18G A35U U43A A56G A57G U72A as the variant, how does the self-cleavage read?
The self-cleavage was 0.24.

With A3G A21G A64G U78A as the variant, how does the self-cleavage read?
Its self-cleavage is 0.54.

Which self-cleavage does the source give for A3G A21U A35G here?
The self-cleavage was 1.15.

For A3G A20G U60C U80C, which self-cleavage is on record?
The self-cleavage was 0.57.

With A3G A20G U31C C32U A77G as the variant, how does the self-cleavage read?
The self-cleavage was 0.17.

With A3G A18G U43C U67A as the variant, how does the self-cleavage read?
The self-cleavage was 0.3.

For A3G A45G U48C U69G, which self-cleavage is on record?
The self-cleavage was 0.15.

For A3G A18G U76A, which self-cleavage is on record?
The self-cleavage was 0.24.

With A3G C12U U43C C44U A56G U58C as the variant, how does the self-cleavage read?
Its self-cleavage is 0.1.

Which self-cleavage does the source give for A3G A18U A20G A28G U49A here?
Its self-cleavage is 0.61.

Which self-cleavage does the source give for A3G C12U U43A U67C here?
Its self-cleavage is 0.64.

Which self-cleavage does the source give for A3G A28C U48G A57G here?
Its self-cleavage is 0.39.

Which self-cleavage does the source give for A3G A20G A35U U66C here?
The self-cleavage was 0.22.

With A3G A20G U48C A65U as the variant, how does the self-cleavage read?
Its self-cleavage is 0.07.

With A3G A21G A45G U80A as the variant, how does the self-cleavage read?
The self-cleavage was 0.49.

With A3G A28U C44U U66A as the variant, how does the self-cleavage read?
The self-cleavage was 0.21.

With A3G A15U U48C U80C as the variant, how does the self-cleavage read?
Its self-cleavage is 0.72.

With A3G A18G G30A U54C A56G G63U U80A as the variant, how does the self-cleavage read?
The self-cleavage was 0.1.

For A3G A15G G19U U58C, which self-cleavage is on record?
The self-cleavage was 0.25.

Which self-cleavage does the source give for A3G A18G A21G U31C here?
The self-cleavage was 0.67.

With A3G A15G U26C C37U U72A C79U as the variant, how does the self-cleavage read?
Its self-cleavage is 0.04.

For A3G A35G U43C U67C A75U, which self-cleavage is on record?
Its self-cleavage is 0.21.

Which self-cleavage does the source give for A3G C12A C23G C32U U41A U60C U67A here?
Its self-cleavage is 0.1.

For A3G A20U U43C U76G, which self-cleavage is on record?
The self-cleavage was 0.06.

With A3G A21G A56U as the variant, how does the self-cleavage read?
Its self-cleavage is 0.29.

For A3G A28U G46A U76C U78C, which self-cleavage is on record?
The self-cleavage was 0.27.

With A3G A20G A28U U48A U60A as the variant, how does the self-cleavage read?
The self-cleavage was 0.21.

For A3G A15U U26C A35U, which self-cleavage is on record?
The self-cleavage was 0.23.

For A3G A56G G63A, which self-cleavage is on record?
Its self-cleavage is 0.83.

For A3G A28G A47G C68A, which self-cleavage is on record?
The self-cleavage was 0.34.
